Assay results as given in PubChem BioAssay AID488969 (Vanderbilt High Throughput Screening Facility, 2010).
The full ranking holds about 110,000 compounds; the median of “z-score” is about -0.1, and the highest 2% start at about 2. This is one part of the list. Active and inactive are the calls of the source.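 Rule for the calls: active = z-score in the third read window above 3 or below -3; inactive = the rest.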

target: Metabotropic glutamate receptor 8 (Rattus norvegicus) (UniProt P70579); assay: rat mGluR8 modulators via GIRK flux, primary screen, cell-based, thallium flux, HTS (AID 488969); settings: HEK293 rat mGluR8, GIRK (G protein-gated inwardly rectifying potassium channel) thallium flux, FluoZin2; at 10 µM; stronger effect = higher value; submaximal glutamate (EC20) added with thallium
UniProt P70579, sequence (P70579 whole entry, looked up): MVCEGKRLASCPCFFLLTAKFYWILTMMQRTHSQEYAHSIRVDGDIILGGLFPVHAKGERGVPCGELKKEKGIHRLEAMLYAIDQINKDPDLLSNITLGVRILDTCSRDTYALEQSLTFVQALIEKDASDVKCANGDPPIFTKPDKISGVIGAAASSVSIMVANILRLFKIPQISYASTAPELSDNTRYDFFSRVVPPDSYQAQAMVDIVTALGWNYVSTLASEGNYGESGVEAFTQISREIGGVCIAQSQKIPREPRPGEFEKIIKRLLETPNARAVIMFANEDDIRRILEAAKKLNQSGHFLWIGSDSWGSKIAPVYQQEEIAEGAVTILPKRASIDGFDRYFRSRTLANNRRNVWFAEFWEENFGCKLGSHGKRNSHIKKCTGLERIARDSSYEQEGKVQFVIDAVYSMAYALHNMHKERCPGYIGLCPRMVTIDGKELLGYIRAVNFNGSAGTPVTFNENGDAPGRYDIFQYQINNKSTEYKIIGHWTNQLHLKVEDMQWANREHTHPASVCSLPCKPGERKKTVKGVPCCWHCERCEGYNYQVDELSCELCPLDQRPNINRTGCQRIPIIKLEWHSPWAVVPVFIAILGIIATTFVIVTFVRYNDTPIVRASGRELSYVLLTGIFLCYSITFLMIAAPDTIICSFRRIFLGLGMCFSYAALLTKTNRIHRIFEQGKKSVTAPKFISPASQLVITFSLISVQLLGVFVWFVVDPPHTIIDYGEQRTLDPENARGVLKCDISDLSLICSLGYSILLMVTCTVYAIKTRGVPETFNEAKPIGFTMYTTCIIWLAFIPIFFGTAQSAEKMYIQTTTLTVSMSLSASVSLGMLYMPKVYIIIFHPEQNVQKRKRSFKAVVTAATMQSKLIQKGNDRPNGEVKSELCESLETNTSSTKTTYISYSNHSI

Compound	z-score
COc1cc(CNn2nnnc2N)cc(Br)c1OCc1c(Cl)cccc1Cl	0.0416
Cc1cc(NC(=O)c2cnn3cccnc23)nn1CC(=O)Nc1cccnc1	-0.112
Cc1cc(O)ccc1NC(=O)CCN1C(=O)c2ccc([N+](=O)[O-])cc2C1=O	-0.173
CC1CCN(S(=O)(=O)c2ccc(C(=O)OCc3ccc4c(c3)OCO4)cc2)CC1	-0.112
Cc1sc2nc(CN3CCOCC3)nc(NS(=O)(=O)c3ccc4c(c3)OCCO4)c2c1C	-0.0249
COc1ccc(OC)c(CN(CCCN2CCOCC2)C(=O)Nc2ccccc2)c1	0.201
CCOc1ccc(-n2c(SCC(=O)Nc3ccc4c(c3)OCCO4)nc3c(c2=O)SCC3)cc1	-0.147
COc1ccc(-c2nnc(SCc3ccccc3F)o2)cc1	0.199
O=C(CSc1c(Cl)cccc1Cl)NC1CCCc2ccccc21 (stereo not given)	0.313
COc1ccccc1-n1c(-c2cccnc2)n[nH]c1=S	-0.406
COc1ccc(C2(C(=O)Nc3ccc(C(=O)N4CCOCC4)cc3)CCOCC2)cc1	-0.173
Cc1ccc2cc(CNC(C)(C)C)c(=O)[nH]c2c1	-0.312
COc1ccc(/C=N/Nc2ccc([N+](=O)[O-])cc2S(=O)(=O)N2CCN(C)CC2)cc1	-0.00921
CC(=O)Nc1nc(C)nc(C)c1C(C)=O	0.0408
Cc1ccc(CNc2ccc(O)cc2)cc1	-0.175
Cc1cnc(C(=O)Nc2ccccc2-c2nnn(CC(=O)NC3CCCC3)n2)cn1	0.0552
O=C(NC1CC1)c1ccc(F)cc1Cl	-0.142
CCCc1cc(C(=O)NCCc2ccc(OC)c(OC)c2)no1	0.182
O=C(CNc1ccc(Oc2ccccc2)cc1)N1CCOCC1	0.526
COC(=O)C(C)n1nc(C)n(-c2ccc(C)cc2)c1=O (stereo not given)	-0.0525
CCOC(=O)N1CCN(C(=O)c2ccccc2-c2ccccc2)CC1	0.205
Cc1cccc(OCc2nnc(SCc3nc4cc(C(F)(F)F)ccc4c(=O)[nH]3)o2)c1	0.668

Compound	z-score
COc1cc(-c2nnc(CSc3nnc(Nc4ccc(Oc5ccccc5)cc4)s3)o2)cc(OC)c1OC	0.138
CC(C)(C)NC(=O)CSc1nc2ccccc2n1-c1ccccc1	-0.594
Cc1[nH]c(=O)[nH]c(=O)c1S(=O)(=O)N1CCCC(C(=O)N2CCN(c3ccccc3Cl)CC2)C1 (stereo not given)	-0.0397
CCn1c(SCC(=O)c2cc(C)n(CC3CCCO3)c2C)nc2ccccc21 (stereo not given)	-0.499
O=C(Nc1nc2c(s1)CCCC2)c1cccs1	0.315
COc1ccc(C2=[N+]([O-])C(C)(C)N(O)C2C)cc1 (stereo not given)	0.368
O=C(CCCN1C(=O)c2ccccc2C1=O)Nc1cccnc1	0.11
COC(=O)c1ccccc1NC(=O)Nc1cccs1	-0.0344
COC(=O)c1ccccc1OCC(=O)N1CCN(c2ccc(OC)cc2)CC1	0.0991
CC(C)OC(=O)CSc1nc(N)c(C#N)c(-c2ccco2)c1C#N	0.0896
Cc1ccc(O)c(C2=NOC(O)(C(F)(F)C(F)F)C2)c1 (stereo not given)	0.805
C=CCn1c(COc2ccc3c(c2)CCCC3)nnc1SCC(=O)Nc1cccc(SC)c1	-0.0125
CC(NS(=O)(=O)c1ccc(CCC(=O)NCC2CCCO2)cc1)c1ccccc1 (stereo not given)	-0.015
CCc1cc2c(=O)[nH]c(N3CCOCC3)nc2s1	0.05
O=c1[nH]nc(CNc2ccc(O)cc2)c2ccccc12	-0.137
COCCNC(=O)CSCc1c(F)cccc1Cl	-0.309
NC1=CC(=O)c2cccc3cccc1c23	0.0608
COc1cc(/C=C/C(=O)N2CCN(CC(O)COc3ccccc3)CC2)cc(OC)c1OC (stereo not given)	-0.413
COc1cccc(-c2ccc(=O)n(CC(=O)NCCN3CCOCC3)n2)c1	0.258
Cc1ccc(S(=O)(=O)N2CCC(C(=O)N[C@@H](C)C(=O)Nc3ccc4c(c3)OCO4)CC2)cc1	0.0642
CCCCn1c(-c2ccc([N+](=O)[O-])cc2)n[nH]c1=S	-0.0803
CN1C(=O)/C(=C/c2ccc(-c3ccccc3[N+](=O)[O-])o2)SC1=Nc1ccc(Cl)c(C(=O)O)c1	-0.786

Compound	z-score
CC(=O)c1ccc(OCC(C)C)c(Cc2c(O)nc(N)[nH]c2=O)c1	-0.204
Cc1cccc(NC(=S)NNC(=O)c2csc3c2CCCC3)c1	active: 14
COCCN1C(=O)C(CC(=O)Nc2ccccc2)SC1=Nc1ccc(OC)cc1 (stereo not given)	-0.209
CC(=O)Nc1ccc(S(=O)(=O)NCc2cn3c(C)csc3n2)cc1	0.309
COc1ccccc1OCC(=O)NCCc1nc2ccccc2[nH]1	-0.987
CCOc1ccc2nc(SCC(=O)N3c4ccccc4Sc4ccccc43)c(C#N)cc2c1	-0.218
COc1ccc(CNC(=O)CCSCc2cccc(Cl)c2)c(OC)c1	-0.242
Cc1ccc2nsnc2c1NC(=S)NC(=O)c1ccco1	active: 6.75
O=C(CSc1ncnc2c1oc1ccccc12)c1cccs1	0.82
C=CCN(CC=C)Cc1c(O)ccc2c1oc(=O)c1ccccc12	-0.229
Cc1nc(SCC(=O)NCCc2ccccc2)c2oc3ccccc3c2n1	0.151
O=C(c1ccco1)n1nc(-c2ccc(Cl)cc2)nc1NCc1ccco1	0.0695
COCCn1c(=S)[nH]c2cc(C(=O)N3CCC(C(N)=O)(N4CCCCC4)CC3)ccc2c1=O	-0.286
O=C(CN1C(=O)COc2ccccc21)NCCN1CCc2ccccc2C1	-0.0186
Cc1scc(C(=O)Nn2cnnc2)c1-c1ccccc1	-0.343
Cc1cccc(C(=O)Nc2cc(C)ccc2NC(=O)COc2ccccc2)c1	-0.561
CCOC(=O)c1ccc(NC(=O)CSc2nnc(COc3ccccc3)n2C)cc1	-0.177
Cc1ccccc1-c1nc(CS(=O)(=O)CC(=O)NCc2ccccc2)c(C)o1	-0.0658
COc1ccccc1C(=O)N1CCNC(=O)C1CC(=O)Nc1ccc(Cl)cc1 (stereo not given)	-0.0129
CCOC(=O)c1c(C2CC2)csc1NC(C)=O	-0.0297
COc1ccc(CCN=C(N)NS(=O)(=O)c2ccc(C)cc2)cc1	-0.247
Cc1cc2c(cc(C(=O)OCC(=O)NCc3cccs3)n2C(C)C)o1	-0.794

Compound	z-score
CC(=O)Nc1nc2ccccc2n1CCOc1ccccc1	0.0425
CCc1nnc(NC(=O)c2ccc(S(=O)(=O)N3CCOCC3)cc2)s1	-0.164
O=C(c1cccc2cccc(O)c12)N1CCCCC1	-0.615
Cc1ccc(-n2c(-c3cccc(C)c3)n[nH]c2=S)cc1	0.482
O=C(NC1CCCCC1)c1ccc(COCC(F)(F)F)o1	-1.49
O=S(=O)(c1cnc(Cl)c(Br)c1)N1CCCCCC1	-0.292
O=C(O)CC(C(=O)OC1CCCCC1)N1CCOCC1 (stereo not given)	0.122
COC(=O)c1ccc(C(=O)OC)c(NC(=O)COC(=O)C2CC2C)c1 (stereo not given)	-0.245
CCn1c(=N)n(CC(=O)C(C)(C)C)c2ccccc21	0.023
COc1ccc(C(=O)NC(C(=O)NCC(=O)Nc2c(C)cccc2C)C(C)C)cc1 (stereo not given)	-0.0633
C#CCN1C(=O)C(O)(CC(=O)c2ccc(OC)c(OC)c2)c2ccccc21 (stereo not given)	-0.0381
COc1ccc(C(=O)COC(=O)C(CC(C)C)N2C(=O)c3ccccc3C2=O)cc1 (stereo not given)	-0.0904
COC(=O)C1=C(C)NC(C)=C(C(=O)OC)C1C(=O)OCC(=O)N1c2ccccc2CC1C (stereo not given)	0.131
Cc1c(N2C(=O)/C(=C/c3ccccc3)SC2=S)c(=O)n(-c2ccccc2)n1C	-0.226
Cc1nc(C)c(-c2csc(NCCc3ccccc3)n2)s1	-0.396
OC(CNCCc1ccc(C(F)(F)F)cc1)COc1ccc2ccccc2c1 (stereo not given)	0.0956
C=CCc1ccc(OCCCOc2ccc(C)c(C)c2)c(OC)c1	-0.104
CC(NC(=O)COc1ccccc1)C1COc2ccccc2O1 (stereo not given)	-0.67
CCc1ccc(-n2c(Cn3nc(C(F)(F)F)cc3C)n[nH]c2=S)cc1	-0.112
CC(C)OC(=O)CCc1nc2ccccc2[nH]c1=O	1.33
CCc1cc(-c2n[nH]c(=S)n2Cc2ccccc2)cs1	0.464
Cc1ccc(-c2csc3ncnc(SCC(=O)c4ccc5c(c4)OCCO5)c23)cc1	-0.0954

Compound	z-score
Cc1ccc(C(C)C)c(OCCN)c1	0.794
CCOc1cc(S(=O)(=O)Nc2ccc(Cl)cn2)ccc1Cl	0.279
CCOC(=O)C1CCN(C(=O)CN(c2ccc(OC)cc2)S(=O)(=O)c2c(C)nn(C)c2C)CC1	-0.304
CS(=O)(=O)N(CC(=O)N1CCCC1)c1ccc2c(c1)OCCO2	0.0431
CCOC(=O)C(CC)/C(C)=N/NC(=O)c1ccccc1[N+](=O)[O-] (stereo not given)	-0.147
O=C(NCCOc1ccccc1)c1ccccc1	0.0322
CCCCNC(=S)Nc1ccccc1F	0.54
O=Nc1c(O)n(Cc2cccc(Cl)c2)c2ccccc12	-0.611
CC1(C)Cc2c(C#N)c(OCC(=O)c3ccccc3)nc(-c3ccoc3)c2CO1	-0.0896
NC(=O)C1CCN(C2CC(=O)N(c3ccc(F)c(Cl)c3)C2=O)CC1 (stereo not given)	-0.0189
COC(=O)c1cc(OC)nc2c1c(=O)n(C)c(=O)n2C	-0.285
COc1cc([N+](=O)[O-])ccc1NC(=O)CCN1C(=O)C2C3CCC(C3)C2C1=O (stereo not given)	0.312
COC(=O)c1c(C)oc2ccc(N(C(=O)c3ccncc3)S(=O)(=O)c3ccc4ccccc4c3)cc12	-0.0657
CCOc1cc(C2C(C(=O)OC)=C(C)N=C3SCCC(=O)N32)ccc1OC(C)=O (stereo not given)	-0.187
CCOc1cccc(N2C(=O)CC(N3CCN(c4ccc(S(=O)(=O)CC)cc4)CC3)C2=O)c1 (stereo not given)	0.236
N=c1cc(C2(O)CCCCC2)n2c(nc3ccccc32)s1	0.286
Fc1ccc(Cn2cnc3ccccc32)cc1	-0.209
CCOc1ccc(OCC)c(-c2c(=O)n(OCc3ccc(Cl)cc3)c3ccccc3[n+]2[O-])c1	-0.24
CCOP(=O)(OCC)C(Nc1ccccn1)c1ccccc1 (stereo not given)	-0.0386
COc1ccc(CCNC(=O)COc2ccc(S(=O)(=O)NC(C)C)cc2Cl)cc1OC	-0.0477
COC(=O)C1=C(O)CSC1=Nc1ccc(C)cc1	-0.345
Cc1cc(NC(=O)COc2ccc(N(C)S(=O)(=O)c3ccccc3)cc2)no1	1.75
